Data as given in PubChem BioAssay AID504339 (National Center for Advancing Translational Sciences (NCATS), 2011).
In all, about 390,000 compounds went through this assay and about 17,000 (4.4%) were called active. The shares of active, inactive and inconclusive entries below differ from those in the screen. Calls follow the shape of the dose curve; as a rule, active = well fitted inhibition curve with a large enough effect; inconclusive = small, poorly fitted or top-dose-only effect; inactive = no such curve, though single readings can be large or run the other way. Where the call is inconclusive, the potency comes from a doubtful curve fit.

target: Lysine-specific demethylase 4A (Homo sapiens) (UniProt O75164); assay: qHTS Assay for Inhibitors of JMJD2A-Tudor Domain; conditions: AlphaScreen JMJD2A-Tudor / H3K4me3 peptide binding; activity change, negative = inhibition: at 114 µM (top of the series); also: nearly all actives have a fitted effect of over 50% in size
UniProt O75164, sequence (O75164 whole entry, looked up, the tested form may be a part): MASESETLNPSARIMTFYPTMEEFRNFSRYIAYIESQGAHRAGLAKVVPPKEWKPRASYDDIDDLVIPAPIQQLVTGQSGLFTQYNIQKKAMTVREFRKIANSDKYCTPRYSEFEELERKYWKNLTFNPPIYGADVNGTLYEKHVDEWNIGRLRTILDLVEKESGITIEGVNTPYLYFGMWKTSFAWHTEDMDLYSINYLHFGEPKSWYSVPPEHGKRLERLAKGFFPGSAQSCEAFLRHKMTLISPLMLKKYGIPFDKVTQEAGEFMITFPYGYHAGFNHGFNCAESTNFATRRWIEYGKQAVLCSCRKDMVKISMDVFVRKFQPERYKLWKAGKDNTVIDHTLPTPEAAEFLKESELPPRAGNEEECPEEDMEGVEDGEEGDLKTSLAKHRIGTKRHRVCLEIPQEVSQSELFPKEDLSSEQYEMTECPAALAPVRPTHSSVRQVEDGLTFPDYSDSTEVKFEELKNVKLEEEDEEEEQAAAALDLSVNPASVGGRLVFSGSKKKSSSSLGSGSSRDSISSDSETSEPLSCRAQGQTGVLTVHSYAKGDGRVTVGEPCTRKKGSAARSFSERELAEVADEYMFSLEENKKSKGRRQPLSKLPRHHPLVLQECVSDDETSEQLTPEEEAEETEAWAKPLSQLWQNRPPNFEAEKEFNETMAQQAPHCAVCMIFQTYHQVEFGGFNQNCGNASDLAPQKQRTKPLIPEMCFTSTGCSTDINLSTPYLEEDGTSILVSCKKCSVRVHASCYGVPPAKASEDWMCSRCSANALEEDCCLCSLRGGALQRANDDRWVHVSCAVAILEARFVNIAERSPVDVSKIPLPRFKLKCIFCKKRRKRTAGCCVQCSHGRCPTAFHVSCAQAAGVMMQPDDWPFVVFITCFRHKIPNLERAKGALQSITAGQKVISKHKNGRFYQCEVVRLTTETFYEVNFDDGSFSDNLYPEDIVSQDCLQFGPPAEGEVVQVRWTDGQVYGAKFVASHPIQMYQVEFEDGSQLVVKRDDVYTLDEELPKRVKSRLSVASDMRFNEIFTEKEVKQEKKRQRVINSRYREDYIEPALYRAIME
% is scaled to controls: 0 for no effect and ±100 for the full control effect; potency is read from the fitted curve at half-maximal effect; tags tell the direction and shape of the fitted curve.

SMILES	activity change, negative = inhibition	Potency
COC(C)(C)CCCC(C)C/C=C/C(C)=C/C(=O)OC(C)C (configuration not stated)	inactive: 97.2%	–
CCSc1nnc(C(N)Cc2ccccc2)o1 (configuration not stated)	–	inconclusive: 100 µM [inhibitor, single point]
CC(=O)/C=C/c1ccccc1	inactive: -8.84%	–
Cn1ccnc1P(=S)(c1nccn1C)N1CCOCC1	–	active: 35.5 µM
CCOc1ccccc1CN(CCc1ccc2c(c1)OCO2)Cc1ccc(CC)cc1	–	active: 5.01 µM
CN(C)c1ccc(/C=C2/C(=N\O)C3CCN2CC3)cc1	–	inconclusive: 44.7 µM [inhibitor, partial curve]
Cc1nn(CCC#N)c2c1P(=S)(N1CCCC1)OC(c1ccc(F)cc1)=N2 (configuration not stated)	–	inconclusive: 79.4 µM [inhibitor, partial curve]
O=C(O)CSCC(=O)N(Cc1ccccc1)c1nc(-c2ccccc2)c(-c2ccccc2)s1	–	active: 56.2 µM
CCOC(=O)c1ccccc1C(=O)OCC	inactive: -5.52%	–
Cc1ccccc1-n1c(/C=C/c2ccc(O)cc2)nc2ccccc2c1=O	inactive: -14.1%	–
C=CCN1C(=O)NC(=O)/C(=C/c2cnc(SC)nc2)C1=O	–	active: 79.4 µM
CCc1ccccc1N1C(=O)/C(=C/c2ccc(N3CCN(C)CC3)o2)C(=O)NC1=S	–	active: 56.2 µM
CCOc1cc2c(cc1OCC)-n1cccc1C(c1ccc(OC(F)F)cc1)NC2 (configuration not stated)	–	inconclusive: 44.7 µM [inhibitor, partial curve]
CN(C)C1C(=O)C(C(N)=O)=C(O)C2(O)C(=O)C3=C(O)c4c(O)cccc4C(C)(O)C3CC12 (configuration not stated)	–	active: 39.8 µM
CC1N(C)c2cc(NC(=O)c3ccco3)c(P(=O)(Nc3ccc([N+](=O)[O-])cc3)N3CCOCC3)cc2C1(C)C (configuration not stated)	–	inconclusive: 35.5 µM [inhibitor, partial curve]
c1cncc(CNC2CCCC2)c1	–	inconclusive: 100 µM [inhibitor, single point]
COC(=O)C(O)(c1ccc(NC(=S)NC(=O)c2ccc(Cl)cc2Cl)c(C)c1)C(F)(F)F (configuration not stated)	–	active: 79.4 µM
O=C1C(Cl)=CC(=Nc2ccc(O)cc2)C=C1Cl	–	active: 44.7 µM
COc1ccc(-c2cc(=O)oc3c(C)c(OC(C)C(=O)N4C[C@H]5C[C@@H](C4)c4cccc(=O)n4C5)ccc23)cc1 (some centres not stated)	–	inconclusive: 70.8 µM [inhibitor, partial curve, poor fit]

SMILES	activity change, negative = inhibition	Potency
CCOC(=O)c1cccc([P+](=O)O)c1	–	active: 28.2 µM
Cc1cc(C)n(-c2ccc(NN=C(C#N)C#N)cc2)n1	–	inconclusive: 50.1 µM [inhibitor, partial curve]
COc1ccc(N2C(=O)/C(=C/c3ccc(C)o3)C(=O)NC2=S)c(OC)c1	–	active: 50.1 µM
CC1(C)CCCN1CCC(C(N)=O)(c1ccccc1)c1ccccc1	–	inconclusive: 39.8 µM [inhibitor, single point]
COc1ccc(N2C(=O)/C(=C/c3cccs3)C(=O)NC2=S)cc1	–	active: 35.5 µM
Cc1nc2ccccc2n1C1CCN(Cc2nnnn2CCc2ccccc2)CC1	–	inconclusive: 25.1 µM [inhibitor, full curve, poor fit]
CCC(CC)N1CCN(C(=O)Cc2ccccc2)CC1	–	active: 3.16 µM
COc1ccc(N/N=C/c2c(O)n(-c3cccc(C)c3)c(=O)[nH]c2=O)cc1	inactive: -29.6%	–
COC(=O)C1=C(c2ccc(F)cc2F)C[C@@H]2CC[C@H]1N2C(=O)N1CCCCC1	inactive: -2.07%	–
CC(C)[N+](C)(CCC(C(N)=O)(c1ccccc1)c1ccccc1)C(C)C	–	active: 25.1 µM
CCN(CC)C(=O)CN1CCN(c2ccccc2F)CC1	–	active: 8.91 µM
Cc1[nH]c2c(Cl)cccc2c1CCN	inactive: -30.4%	–
CCn1c(O)c(C=NCc2cccs2)c(=O)[nH]c1=O	–	inconclusive: 39.8 µM [inhibitor, single point]
C/C=C1/C[N+]2(C)CCC34C(=C(C=O)[C@H]1C[C@@H]32)Nc1ccccc14 (some centres not stated)	–	inconclusive: 89.1 µM [inhibitor, partial curve]
COc1ccc(/C=C2/C(=O)NC(=S)N(C3CC3)C2=O)cc1CN1C(=O)c2ccccc2C1=O	–	active: 25.1 µM
O=c1[nH]c(=S)n(Cc2ccc(F)cc2)c(O)c1C=NCCCn1ccnc1	inactive: -20.6%	–
CC(C)n1c(=O)c(C=Nc2cccc([N+](=O)[O-])c2)c(O)n(CCc2ccccc2)c1=O	–	inconclusive: 11.2 µM [inhibitor, full curve]
CCN(CC)c1ccc(/C=N/c2sc3c(c2C#N)C2CCN3CC2)c(O)c1	–	inconclusive: 20 µM [inhibitor, partial curve]
